The test system of test [1] is A549-Dual. In words: NF-kB reporter (SEAP) activity, viability-corrected, relative to vehicle (fold change vs vehicle); higher = more activation of STING-IRF / NF-kB immune response reporter. The settings on record: 10 µM.
In test [2] the test system is A549-Dual. In words: ISRE reporter (Lucia luciferase) activity, viability-corrected, relative to vehicle (fold change vs vehicle); higher = more activation of STING-IRF / NF-kB immune response reporter. The settings on record: 10 µM.

Structures are written as SMILES. The list shows a part of the results. Single values of this set are uncertain. Values with irradiation are relative to irradiated vehicle.
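Wherever NF-kB reporter (SEAP) activity, viability-corrected, relative to vehicle is given: viability correction based on the alamar blue assay, with concentrations leaving 10% survival or less dropped.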

In the case of `Cc1cc(O)c(C(=O)NC(C(=O)NC2C(=O)N3C(C(=O)[O-])=C(CSc4nnnn4C)CSC23)c2ccc(O)cc2)cn1.[Na+]` (stereo unspecified) [Cefpiramide sodium], the NF-kB reporter in test [1] (irradiation: 8 Gy/4 fr) was 0.635; in test [1] (irradiation: none) it was 0.969. In addition, the figures for the ISRE reporter in test [2] (irradiation: 8 Gy/4 fr) and in test [2] (irradiation: none) were 0.678 and 0.823, respectively.
Take `CC(=O)O.N=C(N)NCCCC(N)C(=O)NC(CCCNC(=N)N)C(=O)N1CCCC1C(=O)N1CC(O)CC1C(=O)NCC(=O)NC(Cc1cccs1)C(=O)NC(CO)C(=O)N1Cc2ccccc2CC1C(=O)N1C(C(=O)NC(CCCNC(=N)N)C(=O)O)CC2CCCCC21` (stereo unspecified) [Icatibant Acetate]: the results for the NF-kB reporter in test [1] (irradiation: 8 Gy/4 fr) and in test [1] (irradiation: none) were 1.47 and 0.854, respectively. In addition, the figures for the ISRE reporter in test [2] (irradiation: 8 Gy/4 fr) and in test [2] (irradiation: none) were 1.64 and 1.05, respectively.
In the case of `CC1OC(OC2C(CO)OC(OC3C(CO)OC(O)C(O)C3O)C(O)C2O)C(O)C(O)C1NC1C=C(CO)C(O)C(O)C1O` (stereo unspecified) [Acarbose], the NF-kB reporter in test [1] (irradiation: 8 Gy/4 fr) was found to be 0.94; in test [1] (irradiation: none), 0.96. Moreover, the ISRE reporter was 0.947 in test [2] (irradiation: 8 Gy/4 fr) and 0.895 in test [2] (irradiation: none).
With `Cc1ccc(C2OC(CO)C(O)C(O)C2O)cc1Cc1ccc(-c2ccc(F)cc2)s1` (stereo unspecified) [Canagliflozin], the NF-kB reporter was found to be 0.995 in test [1] (irradiation: 8 Gy/4 fr) and 0.692 in test [1] (irradiation: none). In addition, the ISRE reporter in test [2] (irradiation: 8 Gy/4 fr) turned out to be 0.821; in test [2] (irradiation: none) it was 0.8.
For the molecule `Cl.OC(CNCC(O)C1CCc2cc(F)ccc2O1)C1CCc2cc(F)ccc2O1` (stereo unspecified) [Nebivolol HCl], the NF-kB reporter in test [1] (irradiation: 8 Gy/4 fr) is 0.457; in test [1] (irradiation: none) it was 0.749. Further, the figures for the ISRE reporter in test [2] (irradiation: 8 Gy/4 fr) and in test [2] (irradiation: none) were 0.483 and 0.983, respectively.
Consider `Cn1c([N+](=O)[O-])cnc1COC(N)=O` [Ronidazole], for which the NF-kB reporter in test [1] (irradiation: 8 Gy/4 fr) turned out to be 0.911; in test [1] (irradiation: none) it was 0.998. For the same molecule, the ISRE reporter in test [2] (irradiation: 8 Gy/4 fr) stood at 0.794; in test [2] (irradiation: none), 0.78.
Consider `CCCC(=O)Nc1ncnc2c1ncn2C1OC2COP(=O)([O][Na])OC2C1OC(=O)CCC` (stereo unspecified) [Dibutyryl-cAMP (Bucladesine)], for which the figures for the NF-kB reporter in test [1] (irradiation: 8 Gy/4 fr) and in test [1] (irradiation: none) were 1.35 and 0.638, respectively. For the same molecule, the ISRE reporter in test [2] (irradiation: 8 Gy/4 fr) was 1.54; in test [2] (irradiation: none) it was 0.598.
On to `CC(O)C(=O)O.CCOc1ccc2nc3cc(N)ccc3c(N)c2c1.O` [Ethacridine lactate monohydrate], for which the NF-kB reporter amounted to 1.08 in test [1] (irradiation: 8 Gy/4 fr) and 1.93 in test [1] (irradiation: none). Besides, the values for the ISRE reporter in test [2] (irradiation: 8 Gy/4 fr) and in test [2] (irradiation: none) were 0.375 and 2.43, respectively.
Regarding `CC(=O)CC/C=C(\C)CC/C=C(\C)CC/C=C(\C)CCC=C(C)C` [Teprenone], the NF-kB reporter was 0.612 in test [1] (irradiation: 8 Gy/4 fr) and 0.736 in test [1] (irradiation: none). In addition, the ISRE reporter in test [2] (irradiation: 8 Gy/4 fr) came to 0.494; in test [2] (irradiation: none), 0.439.
As to `CC(C)c1cc2c(cc1S(=O)(=O)[O-])C1(C)CCCC(C)(C(=O)O)C1CC2.[Na+]` (stereo unspecified) [Ecabet sodium], the NF-kB reporter in test [1] (irradiation: 8 Gy/4 fr) was 1.71; in test [1] (irradiation: none) it was 0.855. Besides, the ISRE reporter in test [2] (irradiation: 8 Gy/4 fr) turned out to be 1.73; in test [2] (irradiation: none) it was 0.766.
On to `Nc1ncnc2c1ncn2C1OC(COP(=O)(O)OP(=O)([O-])OP(=O)([O-])O)C(O)C1O.[Na+].[Na+]` (stereo unspecified), for which the NF-kB reporter was determined as 0.697 in test [1] (irradiation: 8 Gy/4 fr) and 0.529 in test [1] (irradiation: none). For the same molecule, the ISRE reporter in test [2] (irradiation: 8 Gy/4 fr) stood at 0.677; in test [2] (irradiation: none) it was 0.651.
On the same counts, the results for `NC(=O)c1cccnc1` [Nicotinamide (Vitamin B3)] are 0.882, 0.739, 0.734 and 0.559.
For `COc1cc(Cc2cnc(N)nc2N)cc(OC)c1OC` [Trimethoprim], in that order: 0.97, 1.09, 1.21 and 0.799.
As to `CC1=CC(=O)CC(C)(C)C1(O)/C=C/C(C)=C\C(=O)O` (stereo unspecified) [Abscisic Acid (Dormin)], the NF-kB reporter in test [1] (irradiation: 8 Gy/4 fr) is 1.09; in test [1] (irradiation: none) it was 0.753. Further, the ISRE reporter in test [2] (irradiation: 8 Gy/4 fr) worked out at 0.993; in test [2] (irradiation: none), 0.702.

For the origin of these results see the supplement of paper PMC9174493.
